We go through one molecule from the supplement of paper PMC8728848.

The other results are listed elsewhere or left out.

Holding throughout (experiment): glycan array binding signal (z-score within array); higher = stronger binding
Common to all, as to conditions: glycan notation: IUPAC condensed, linker removed

Assay [1] deals with Gal(b1-4)GlcNAc(b1-3)Gal(b1-4)GlcNAc(b1-2)Man(a1-3)[Gal(b1-4)GlcNAc(b1-3)Gal(b1-4)GlcNAc(b1-2)Man(a1-6)]Man(b1-4)GlcNAc(b1-4)[Fuc(a1-6)]GlcNAc. In outline:
(§1)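 Columns mapping to the same glycan were averaged after glycan names were converted to IUPAC-condensed notation. The data come from 3228 arrays in the Consortium for Functional Glycomics database, limited to those with an available protein sequence. Binding is reported as a within-array Z-score averaged across arrays of one protein sequence and across linkers.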

In assay [2] the target is Gal(b1-4)GlcNAc(b1-3)Gal(b1-4)GlcNAc(b1-2)[Gal(b1-4)GlcNAc(b1-3)Gal(b1-4)GlcNAc(b1-6)]Man(a1-6)[Gal(b1-4)GlcNAc(b1-3)Gal(b1-4)GlcNAc(b1-2)Man(a1-3)]Man(b1-4)GlcNAc(b1-4)GlcNAc. In outline: as §1
Assay [3] has as its target Gal(b1-4)GlcNAc(b1-3)Gal(b1-4)GlcNAc(b1-2)[Gal(b1-4)GlcNAc(b1-3)Gal(b1-4)GlcNAc(b1-6)]Man(a1-6)[Gal(b1-4)GlcNAc(b1-3)Gal(b1-4)GlcNAc(b1-2)Man(a1-3)]Man(b1-4)GlcNAc(b1-4)[Fuc(a1-6)]GlcNAc. In outline: as §1
For assay [4], the target named is Gal(b1-4)GlcNAc(b1-3)Gal(b1-4)GlcNAc(b1-3)Gal(b1-4)GlcNAc. The essentials:
as §1

Assay [5] concerns the target Gal(b1-4)GlcNAc(b1-3)Gal(b1-4)GlcNAc(b1-3)Gal(b1-4)GlcNAc(b1-2)Man(a1-3)[Gal(b1-4)GlcNAc(b1-3)Gal(b1-4)GlcNAc(b1-3)Gal(b1-4)GlcNAc(b1-2)Man(a1-6)]Man(b1-4)GlcNAc(b1-4)GlcNAc. In outline: as §1
Assay [6] deals with Gal(b1-4)GlcNAc(b1-3)Gal(b1-4)GlcNAc(b1-3)Gal(b1-4)GlcNAc(b1-2)Man(a1-3)[Gal(b1-4)GlcNAc(b1-3)Gal(b1-4)GlcNAc(b1-3)Gal(b1-4)GlcNAc(b1-2)Man(a1-6)]Man(b1-4)GlcNAc(b1-4)[Fuc(a1-6)]GlcNAc. In outline: as §1
Assay [7] concerns the target Gal(b1-4)GlcNAc(b1-3)Gal(b1-4)GlcNAc(b1-3)Gal(b1-4)GlcNAc(b1-2)[Gal(b1-4)GlcNAc(b1-3)Gal(b1-4)GlcNAc(b1-3)Gal(b1-4)GlcNAc(b1-6)]Man(a1-6)[Gal(b1-4)GlcNAc(b1-3)Gal(b1-4)GlcNAc(b1-3)Gal(b1-4)GlcNAc(b1-2)Man(a1-3)]Man(b1-4)GlcNAc(b1-4)[Fuc(a1-6)]GlcNAc. The essentials: as §1
In assay [8] the target is Gal(b1-4)GlcNAc(b1-3)Gal(b1-4)GlcNAc(b1-3)Gal(b1-4)GlcNAc(b1-3)Gal(b1-4)GlcNAc(b1-2)Man(a1-3)[Gal(b1-4)GlcNAc(b1-3)Gal(b1-4)GlcNAc(b1-3)Gal(b1-4)GlcNAc(b1-3)Gal(b1-4)GlcNAc(b1-2)Man(a1-6)]Man(b1-4)GlcNAc(b1-4)GlcNAc. The essentials:
as §1

Assay [9] deals with Gal(b1-4)GlcNAc(b1-3)Gal(b1-4)GlcNAc(b1-3)Gal(b1-4)GlcNAc(b1-3)Gal(b1-4)GlcNAc(b1-2)Man(a1-3)[Gal(b1-4)GlcNAc(b1-3)Gal(b1-4)GlcNAc(b1-3)Gal(b1-4)GlcNAc(b1-3)Gal(b1-4)GlcNAc(b1-2)Man(a1-6)]Man(b1-4)GlcNAc(b1-4)[Fuc(a1-6)]GlcNAc. The essentials: as §1
Assay [10] deals with Gal(b1-4)GlcNAc(b1-3)Gal(b1-4)GlcNAc(b1-3)Gal(b1-4)GlcNAc(b1-3)Gal(b1-4)GlcNAc(b1-2)[Gal(b1-4)GlcNAc(b1-3)Gal(b1-4)GlcNAc(b1-3)Gal(b1-4)GlcNAc(b1-3)Gal(b1-4)GlcNAc(b1-6)]Man(a1-6)[Gal(b1-4)GlcNAc(b1-3)Gal(b1-4)GlcNAc(b1-3)Gal(b1-4)GlcNAc(b1-3)Gal(b1-4)GlcNAc(b1-2)Man(a1-3)]Man(b1-4)GlcNAc(b1-4)[Fuc(a1-6)]GlcNAc. In outline:
as §1

Assay [11] concerns the target Gal(b1-4)GlcNAc(b1-3)Gal(b1-4)GlcNAc(b1-3)Gal(b1-4)GlcNAc(b1-3)Gal(b1-4)GlcNAc(b1-3)Gal(b1-4)GlcNAc(b1-2)Man(a1-3)[Gal(b1-4)GlcNAc(b1-3)Gal(b1-4)GlcNAc(b1-3)Gal(b1-4)GlcNAc(b1-3)Gal(b1-4)GlcNAc(b1-3)Gal(b1-4)GlcNAc(b1-2)Man(a1-6)]Man(b1-4)GlcNAc(b1-4)GlcNAc. In outline: as §1
In assay [12] the target is Gal(b1-4)GlcNAc(b1-3)Gal(b1-4)GlcNAc(b1-3)Gal(b1-4)GlcNAc(b1-3)Gal(b1-4)GlcNAc(b1-3)Gal(b1-4)GlcNAc(b1-2)Man(a1-3)[Gal(b1-4)GlcNAc(b1-3)Gal(b1-4)GlcNAc(b1-3)Gal(b1-4)GlcNAc(b1-3)Gal(b1-4)GlcNAc(b1-3)Gal(b1-4)GlcNAc(b1-2)Man(a1-6)]Man(b1-4)GlcNAc(b1-4)[Fuc(a1-6)]GlcNAc. In outline: as §1
In assay [13] the target is Gal(b1-4)GlcNAc(b1-3)Gal(b1-4)GlcNAc(b1-3)Gal(b1-4)GlcNAc(b1-3)Gal(b1-4)GlcNAc(b1-3)Gal(b1-4)GlcNAc(b1-2)[Gal(b1-4)GlcNAc(b1-3)Gal(b1-4)GlcNAc(b1-3)Gal(b1-4)GlcNAc(b1-3)Gal(b1-4)GlcNAc(b1-3)Gal(b1-4)GlcNAc(b1-6)]Man(a1-6)[Gal(b1-4)GlcNAc(b1-3)Gal(b1-4)GlcNAc(b1-3)Gal(b1-4)GlcNAc(b1-3)Gal(b1-4)GlcNAc(b1-3)Gal(b1-4)GlcNAc(b1-2)Man(a1-3)]Man(b1-4)GlcNAc(b1-4)[Fuc(a1-6)]GlcNAc. In outline:
as §1

In assay [14] the target is Gal(b1-4)GlcNAc(b1-3)Gal(b1-4)GlcNAc(b1-3)Gal(b1-4)GlcNAc(b1-3)Gal(b1-4)GlcNAc(b1-3)Gal(b1-4)GlcNAc(b1-3)Gal(b1-4)GlcNAc(b1-2)Man(a1-3)[Gal(b1-4)GlcNAc(b1-3)Gal(b1-4)GlcNAc(b1-3)Gal(b1-4)GlcNAc(b1-3)Gal(b1-4)GlcNAc(b1-3)Gal(b1-4)GlcNAc(b1-3)Gal(b1-4)GlcNAc(b1-2)Man(a1-6)]Man(b1-4)GlcNAc(b1-4)GlcNAc. The essentials: as §1
In assay [15] the target is Gal(b1-4)GlcNAc(b1-3)Gal(b1-4)GlcNAc(b1-3)GalNAc. The essentials:
as §1

B1: a L Fucosidase (Streptosporangium roseum), D2B1P1_STRRD (protein)
chain: MRRKLLLVPAVGLLVIGSIFATQPVASADTPPVYEPTVESLNSHPVPQWFNDDKFGIFIHWGAYSVPAWGPRGSYAEWYGNYMNAGGSATNAHHKATYGQDFNYDAFLQQWKAEKFDPADWVKLFKDAGAKYFVLTSKHHEGMALWDSKSSGRDSVDLGPGRDLAKELFDAARKDEAKLKAGFYYSLYEWYNPAYTGRPATNPYTGAEIPYTGAPGGGDYVKDYMLPQMRELIDGYDPDIIWCDGQWEKPASYWNTAGVIADYYNKALNSGKEVAVANRCKIQSGNLDSPELDFQTPEYTVKPDIDPVKWESSRGIAHSYGYNQNEPEEDHLTSDQLVDSLVDIVSKNGNLLLDIGPKADGTIPEIQRQRLLDIGAWLKANGEAIYGTTYWNRAEEKGGPDDVRYTAKDATLYATALKWPGEQLTLGADLPVDHSTRITMLGSGARLSWSRDEQGRVVVNTPQEAGKHAYVFKIETPGVRSLLRTSSSLAKEIAPGRTISGELTVTNPGKRHTPATKLSLTVPQGWTATLGAPRVRPLGPGESVKVPISVSAPEGVAPAPYTLGLYQRTGRMGTTTALPLTVNRPNLSLGKPATQKSTGYDAPASRAVDGNTGGDWSAGSTTHTAEPEKQAWWQVDLGASARLDSVDVWNRLDCCADRLKDFWVMASDQPFTTDDLDQARTAPGVTAVHVGEQAGSPSKVKLPEGTRGRYVRIQLASPSNPLSLAEVQVRGSMARPNLSLGKPATQKSTGYDAPASRAVDGNTGGDWSAGSTTHTAEPEKQAWWQVDLGASARLDSVDVWNRLDCCADRLKDFWVMASDQPFTTDDLDQARTAPGVTAVHVGEQAGSPSKVKLPEGTRGRYVRIQLASPSNPLSLAEVQVRLEHHHHHHS
Consider B1, for which the “glycan array binding signal (z-score)” value was -0.119 in assay [1]; 0.121 in [2]; -0.462 in assay [3]; -0.424 in assay [4]; -0.024 in assay [5]; -0.322 in assay [6]. Moreover, the “glycan array binding signal (z-score)” value in [7] was -0.468; in assay [8], -0.471; in assay [9] it was -0.201; in assay [10], -0.406; in assay [11] it was -0.491; in assay [12], 2.03. Besides, the “glycan array binding signal (z-score)” value in [13] is -0.265; in assay [14], -0.476; in assay [15] it was 0.072.
